# The whole screen tested about 390,000 compounds, of which about 150 (0.038%) were called active. This list was built around the results that the source calls inconclusive (neither active nor inactive); the mix of calls is not that of the screen. Calls follow the shape of the dose curve; as a rule, active = well fitted inhibition curve with a large enough effect; inconclusive = small, poorly fitted or top-dose-only effect; inactive = no such curve, though single readings can be large or run the other way. Potencies of inconclusive entries are doubtful fits and often do not repeat.
# Target: Regulator of G-protein signaling 4 (Homo sapiens) (UniProt P49798)
# UniProt P49798, sequence (P49798 whole entry, looked up): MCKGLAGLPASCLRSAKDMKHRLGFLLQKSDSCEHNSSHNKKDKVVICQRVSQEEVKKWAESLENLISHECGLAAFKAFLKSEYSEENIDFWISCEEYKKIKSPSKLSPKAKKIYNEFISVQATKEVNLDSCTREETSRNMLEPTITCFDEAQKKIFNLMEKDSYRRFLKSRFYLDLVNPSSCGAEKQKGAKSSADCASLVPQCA
# Experiment: Inhibitors of Regulator of G Protein Signaling (RGS) 4: qHTS; also: nearly all actives have a fitted effect of over 75% in size
# Settings: Transcreener GDP fluorescence polarization, RGS4-accelerated GTP hydrolysis; series mostly up to 114 µM; activity change, negative = inhibition: at the top concentration
# Method in brief: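 MLSMR compounds (23 nl, pin-transferred) preincubated 10 min at room temperature with a 500nM (2x) first reagent, then RGS4 at 900nM (2x) plus Transcreener GDP mix added; fluorescence polarization (620/688 nm) read before and after 90 min at 30 °C.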
# % is scaled to controls: 0 for no effect and ±100 for the full control effect; potency is read from the fitted curve at half-maximal effect; tags tell the direction and shape of the fitted curve.
SMILES,"activity change, negative = inhibition",Potency
Cc1nc2cccnc2n1-c1cccc(C(=O)N2CCN(c3cccc(Cl)c3)CC2)c1,inactive: 6.02%,–
CCc1c(C)sc(NC(=O)c2cc(-c3cccc(Cl)c3)on2)c1C#N,–,"inconclusive: 35.5 µM [inhibitor, partial curve, poor fit]"
CCOC(=O)C1CCCN(c2cc(C)nc3c(-c4ccccc4OC)c(C)nn23)C1 (stereo not given),inactive: 18.1%,–
Cc1cccc(N2CCN(C(=O)c3ccccc3SCC(=O)N3CCCC3)CC2)c1C,–,"inconclusive: 89.1 µM [inhibitor, single point]"
Cc1c(C)n(C)c2ccc(C(=O)NCCCN3CCCCC3C)cc12 (stereo not given),–,inactive
Oc1ccc(/C=C/c2ccc(/C=C/c3ccc(O)cc3)c(Br)c2)cc1,–,"inconclusive: 21.2 µM [inhibitor, single point]"
COc1ccc(-c2cc(-c3nnc(COC(=O)C4CC4C)o3)c3ccccc3n2)cc1OC (stereo not given),inactive: 21.3%,–
C=Cn1c(N2CCOCC2)nc2c1c(=O)[nH]c(=O)n2C,–,"inconclusive: 50.1 µM [inhibitor, partial curve, poor fit]"
Cc1ccccc1Cn1nnc(C(=O)Nc2ccc3c(c2)OCCO3)c1N,inactive: -32.6%,–
CCCn1cc(S(=O)(=O)c2ccccc2)c(=O)c2cc(F)c(N3CCCC(C)C3)cc21 (stereo not given),inactive: -2.61%,–
COc1ccc(C)c2sc(N(Cc3cccnc3)C(=O)C3CCCCC3)nc12,–,"inconclusive: 100 µM [inhibitor, single point]"
N#Cc1c(-c2ccc3c(c2)OCO3)csc1N,inactive: 21.8%,–
CCOc1ccccc1OCCOCCN1CCN(Cc2ccccc2)CC1,inactive: -18.2%,–
Cc1cc(C)c2nc(NNC(=O)c3cc(=O)c4ccccc4o3)sc2c1,–,"inconclusive: 35.5 µM [inhibitor, partial curve, poor fit]"
CCOc1cccc(C(c2c(C)n(C)n(-c3ccccc3)c2=O)c2c(C)n(C)n(-c3ccccc3)c2=O)c1OC,–,"inconclusive: 56.2 µM [inhibitor, partial curve, poor fit]"
CCOC(=O)c1c(NC(=O)COc2cc(C)ccc2C(C)C)sc(C)c1C,–,"inconclusive: 35.5 µM [inhibitor, partial curve, poor fit]"
CCCCCC(=O)Nc1ccc(-c2csc(N)n2)cc1,–,"inconclusive: 79.4 µM [inhibitor, partial curve, poor fit]"
O=C(O)CNCC1COc2ccccc2O1 (stereo not given),inactive: 9.78%,–
CN(C)C(CNC(=O)CCNC(=O)c1ccc(Br)cc1)c1ccco1 (stereo not given),inactive: -12.5%,–
COc1ccc(OC)c(C(=O)NC(CC(N)=O)c2ccc(N3CCN(c4ccc(F)cc4)CC3)c([N+](=O)[O-])c2)c1 (stereo not given),–,"inconclusive: 70.8 µM [inhibitor, single point]"
